The text below walks through data of publication PMC7181131, “N-Pyrazinoyl Substituted Amino Acids as Potential Antimycobacterial Agents—the Synthesis and Biological Evaluation of Enantiomers” (Molecules, 2020).

A value given as a limit tells only on which side of the number the result lay.

What all share (assay): microbe, parasite or virus in culture
The test system of test [1] is Enterococcus faecalis CCM 4224 (ATCC 29212). The following applies: 24 h, read-out: MIC EF.
For test [2], the system named is Escherichia coli CCM 3954 (ATCC 25922). The following applies: 24 h, read-out: MIC EC.
The subject of test [3] is Acinetobacter baumannii DSM 30007, ATCC 19606. The note with it: 24 h, read-out: MIC ACI.
Test [4] has as its system Pseudomonas aeruginosa CCM 3955 (ATCC 27853). The note with it: 24 h, read-out: MIC PA.

`COC(=O)[C@H](CO)NC(=O)c1cnccn1` [PC-L-Ser-Me, methyl (pyrazine-2-carbonyl)-L-serinate]: the MIC in test [1], in test [2], in test [3] and in test [4] was over 500 µM in each case.

As for `C[C@@H](NC(=O)c1cnccn1)C(=O)O` [PC-D-Ala, (pyrazine-2-carbonyl)-D-alanine], the MIC in test [1], in test [2], in test [3] and in test [4] was over 500 µM in each case.

Consider `CCOC(=O)CNC(=O)c1cnccn1` [PC-Gly-Et, ethyl (pyrazine-2-carbonyl)glycinate], for which the MIC in test [1], in test [2], in test [3] and in test [4] was over 500 µM throughout.

With `COC(=O)[C@@H](COC(C)(C)C)NC(=O)c1cnccn1` [PC-D-OtBu-Ser-Me, methyl O-(tert-butyl)-N-(pyrazine-2-carbonyl)-D-serinate], the MIC in test [1], in test [2], in test [3] and in test [4] was over 500 µM each time.

Turning to `CCOC(=O)C[C@H](NC(=O)c1cnccn1)C(=O)OCC` [PC-L-Asp-diEt, diethyl (pyrazine-2-carbonyl)-L-aspartate], the MIC in test [1], in test [2], in test [3] and in test [4] was over 500 µM throughout.

For the compound `C[C@H](NC(=O)c1cnccn1)C(=O)O` [PC-L-Ala, (pyrazine-2-carbonyl)-L-alanine], the MIC in test [1], in test [2], in test [3] and in test [4] was over 500 µM in each case.

Take `COC(=O)CC[C@@H](NC(=O)c1cnccn1)C(=O)OC` [PC-D-Glu-diMe, dimethyl (pyrazine-2-carbonyl)-D-glutamate]: the MIC in test [1], in test [2], in test [3] and in test [4] was over 500 µM throughout.

For `COC(=O)[C@@H](NC(=O)c1cnccn1)[C@@H](C)O` [PC-L-Thr-Me, methyl (pyrazine-2-carbonyl)-L-threoninate], the MIC in test [1], in test [2], in test [3] and in test [4] was over 500 µM in each case.

As to `O=C(N[C@H](CO)C(=O)O)c1cnccn1` [PC-D-Ser, (pyrazine-2-carbonyl)-D-serine], the MIC in test [1], in test [2], in test [3] and in test [4] was over 500 µM in each case.

Take `CCOC(=O)[C@H](Cc1c[nH]c2ccccc12)NC(=O)c1cnccn1` [PC-L-Trp-Et, ethyl (pyrazine-2-carbonyl)-L-tryptophanate]: the MIC in test [1], in test [2], in test [3] and in test [4] was over 500 µM each time.

With `CCOC(=O)[C@H](Cc1ccc(O)cc1)NC(=O)c1cnccn1` [PC-L-Tyr-Et, ethyl (pyrazine-2-carbonyl)-L-tyrosinate], the MIC in test [1], in test [2], in test [3] and in test [4] was over 500 µM in each case.

Consider `O=C(N[C@@H](CSCc1ccccc1)C(=O)O)c1cnccn1` [PC-L-SBn-Cys, S-benzyL-N-(pyrazine-2-carbonyl)-L-cysteine], for which the MIC in test [1], in test [2], in test [3] and in test [4] was over 250 µM throughout.

Turning to `COC(=O)[C@H](NC(=O)c1cnccn1)C(C)C` [PC-D-Val-Me, methyl (pyrazine-2-carbonyl)-D-valinate], the MIC in test [1], in test [2], in test [3] and in test [4] was over 500 µM in each case.

On to `CCOC(=O)[C@H](CC(C)C)NC(=O)c1cnccn1` (racemic) [PC-DL-Leu-Et, ethyl (pyrazine-2-carbonyl)leucinate], for which the MIC in test [1], in test [2], in test [3] and in test [4] was over 500 µM each time.

`CCOC(=O)[C@@H](NC(=O)c1cnccn1)C(C)C` (racemic) [PC-DL-Val-Et, ethyl (pyrazine-2-carbonyl)valinate]: the MIC in test [1], in test [2], in test [3] and in test [4] was over 500 µM each time.

Take `COC(=O)[C@@H](Cc1ccc(O)cc1)NC(=O)c1cnccn1` [PC-D-Tyr-Me, methyl (pyrazine-2-carbonyl)-D-tyrosinate]: the MIC in test [1], in test [2], in test [3] and in test [4] was over 500 µM in each case.

As for `CCOC(=O)[C@H](Cc1ccccc1)NC(=O)c1cnccn1` (racemic) [PC-DL-Phe-Et, ethyl (pyrazine-2-carbonyl)phenylalaninate], the MIC in test [1], in test [2], in test [3] and in test [4] was over 500 µM each time.

In the case of `CCOC(=O)[C@H](C)NC(=O)c1cnccn1` [PC-L-Ala-Et, ethyl (pyrazine-2-carbonyl)-L-alaninate], the MIC in test [1], in test [2], in test [3] and in test [4] was over 500 µM throughout.

`COC(=O)[C@@H](CO)NC(=O)c1cnccn1` [PC-D-Ser-Me, methyl (pyrazine-2-carbonyl)-D-serinate]: the MIC in test [1], in test [2], in test [3] and in test [4] was over 500 µM each time.

For `O=C(N[C@@H](COCc1ccccc1)C(=O)O)c1cnccn1` [PC-L-OBn-Ser, O-benzyl-N-(pyrazine-2-carbonyl)-L-serine], the MIC in test [1], in test [2], in test [3] and in test [4] was over 500 µM throughout.

As for `COC(=O)[C@@H](CC(C)C)NC(=O)c1cnccn1` [PC-D-Leu-Me, methyl (pyrazine-2-carbonyl)-D-leucinate], the MIC in test [1], in test [2], in test [3] and in test [4] was over 500 µM in each case.

For the compound `COC(=O)[C@H](CC(C)C)NC(=O)c1cnccn1` [PC-L-Leu-Me, methyl (pyrazine-2-carbonyl)-L-leucinate], the MIC in test [1], in test [2], in test [3] and in test [4] was over 500 µM throughout.

As to `O=C(O)CNC(=O)c1cnccn1` [PC-Gly, (pyrazine-2-carbonyl)glycine], the MIC in test [1], in test [2], in test [3] and in test [4] was over 500 µM in each case.

Consider `COC(=O)[C@H](COC(C)(C)C)NC(=O)c1cnccn1` [PC-L-OtBu-Ser-Me, methyl O-(tert-butyl)-N-(pyrazine-2-carbonyl)-L-serinate], for which the MIC in test [1], in test [2], in test [3] and in test [4] was over 500 µM throughout.

Turning to `C=C(NC(=O)c1cnccn1)C(=O)OC` [PC-MeAcr, methyl 2-(pyrazine-2-carboxamido)acrylate], the MIC in test [1], in test [2], in test [3] and in test [4] was over 125 µM each time.

For `CCOC(=O)[C@@H](C)NC(=O)c1cnccn1` [PC-D-Ala-Et, ethyl (pyrazine-2-carbonyl)-D-alaninate], the MIC in test [1], in test [2], in test [3] and in test [4] was over 500 µM throughout.

In the case of `COC(=O)[C@@H](NC(=O)c1cnccn1)[C@@H](C)OC(C)(C)C` [PC-L-OtBu-Thr-Me, methyl O-(tert-butyl)-N-(pyrazine-2-carbonyl)-L-threoninate], the MIC in test [1], in test [2], in test [3] and in test [4] was over 500 µM throughout.

As for `CCOC(=O)CC[C@H](NC(=O)c1cnccn1)C(=O)OCC` [PC-L-Glu-diEt, diethyl (pyrazine-2-carbonyl)-L-glutamate], the MIC in test [1], in test [2], in test [3] and in test [4] was over 500 µM throughout.

As for `CCOC(=O)[C@@H](Cc1c[nH]c2ccccc12)NC(=O)c1cnccn1` [PC-D-Trp-Et, ethyl (pyrazine-2-carbonyl)-D-tryptophanate], the MIC in test [1], in test [2], in test [3] and in test [4] was over 500 µM in each case.

On to `COC(=O)[C@H](COCc1ccccc1)NC(=O)c1cnccn1` [PC-L-OBn-Ser-Me, methyl O-benzyl-N-(pyrazine-2-carbonyl)-L-serinate], for which the MIC in test [1], in test [2], in test [3] and in test [4] was over 250 µM throughout.

In the case of `COC(=O)[C@H](NC(=O)c1cnccn1)[C@H](C)OC(C)(C)C` [PC-D-OtBu-Thr-Me, methyl O-(tert-butyl)-N-(pyrazine-2-carbonyl)-D-threoninate], the MIC in test [1], in test [2], in test [3] and in test [4] was over 500 µM in each case.

On to `COC(=O)[C@@H](NC(=O)c1cnccn1)C(C)C` [PC-L-Val-Me, methyl (pyrazine-2-carbonyl)-L-valinate], for which the MIC in test [1], in test [2], in test [3] and in test [4] was over 500 µM in each case.
